The supplement of paper PMC3334620
Whole data set: some 33,000 sequences, median “E-score (-0.5 to 0.5)” near -0.032, cut for the highest 2% near 0.36. Some of the results follow.

molecular target: T1, Sko1 (UniProt Q02100); assay: PBM E-score (8-mer binding enrichment) (E-score (-0.5 to 0.5)); higher = stronger / more preferred TF binding; most listed sequences are background and not binding sites; settings: protein concentration: 200 nM; construct: GST-full length
T1 sequence: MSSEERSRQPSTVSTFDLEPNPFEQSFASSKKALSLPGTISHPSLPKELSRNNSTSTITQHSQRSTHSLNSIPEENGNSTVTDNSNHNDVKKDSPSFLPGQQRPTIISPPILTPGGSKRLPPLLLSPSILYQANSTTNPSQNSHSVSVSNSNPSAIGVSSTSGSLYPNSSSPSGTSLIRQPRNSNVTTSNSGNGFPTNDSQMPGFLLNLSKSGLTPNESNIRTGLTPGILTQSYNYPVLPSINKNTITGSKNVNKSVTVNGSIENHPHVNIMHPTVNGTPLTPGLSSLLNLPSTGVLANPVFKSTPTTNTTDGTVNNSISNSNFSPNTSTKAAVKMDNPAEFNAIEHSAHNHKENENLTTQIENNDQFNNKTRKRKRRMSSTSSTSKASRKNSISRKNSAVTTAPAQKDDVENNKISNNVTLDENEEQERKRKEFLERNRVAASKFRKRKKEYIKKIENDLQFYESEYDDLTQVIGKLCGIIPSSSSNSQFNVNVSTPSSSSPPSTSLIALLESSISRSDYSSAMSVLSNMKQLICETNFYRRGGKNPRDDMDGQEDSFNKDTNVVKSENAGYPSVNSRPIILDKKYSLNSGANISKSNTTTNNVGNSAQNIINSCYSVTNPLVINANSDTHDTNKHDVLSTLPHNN
Protocol: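 Universal 'all 10-mer' protein binding microarrays (Agilent AMADID 015681) probed with GST-tagged S. cerevisiae TFs (full-length or DBD) made by in vitro transcription/translation (PURExpress), about 100-200 nM. Bound TF was detected with fluorescent anti-GST. Each ungapped 8-mer (which stands for itself and its reverse complement) is scored by the PBM enrichment score (E-score), a modified Wilcoxon-Mann-Whitney statistic from -0.5 to +0.5, computed with the Universal PBM Analysis Suite. Scale: above 0.35 generally sequence-specific binding.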

| Sequence | PBM E-score |
| --- | --- |
| AAACGCCC | -0.0956 |
| ATGCATCA | 0.331 |
| GCATCTCA | 0.0742 |
| CAAACAAG | -0.161 |
| ATACAAGG | 0.02 |
| GGAGACAC | 0.0215 |
| CACTATAC | 0.105 |
| AATGTGTA | 0.0847 |
| AGGGACGG | -0.292 |
| CGCCGCGC | -0.166 |
| GAGTGAAC | -0.0541 |
| TATCGCAA | 0.00541 |
| CAGAAGCC | -0.118 |
| ACTTAACA | 0.153 |
| ACAAAGCA | 0.0979 |
| AGCTCACG | 0.0675 |
| CGCTACAC | -0.0096 |
| ATACCTGC | -0.102 |
| CGAGACAA | -0.164 |
| ATCGTAAT | 0.401 |
| AGCTAATG | 0.114 |
| CCATTCAA | 0.0152 |
| ATGTTTTC | 0.162 |
| ATCAAATA | 0.0825 |
| GATGTGCA | 0.0304 |

| Sequence | PBM E-score |
| --- | --- |
| CAAGAACG | 0.109 |
| ATGGTTGC | -0.159 |
| ATCCTAAT | 0.185 |
| ATCATCTA | 0.0859 |
| ACCCAGCA | -0.216 |
| CATTGGCG | -0.129 |
| ATAGTGAC | 0.328 |
| CACCCAGA | -0.0976 |
| CCTTGTTC | -0.127 |
| GCAGCGAA | 0.0105 |
| AGGAACAG | -0.18 |
| CTACAGAC | -0.118 |
| ATTCTAGG | 0.0401 |
| ATCTGAGG | -0.0702 |
| CGACCCAA | 0.0774 |
| GAATTGTC | 0.0358 |
| CTCCCGCC | -0.0669 |
| AGCAGAGG | -0.306 |
| ACGTTCTC | 0.308 |
| CGCTTCAC | -0.0397 |
| GGGGAACA | -0.314 |
| ATACCCGA | -0.112 |
| ACTCTTGC | -0.00172 |
| AGAGTAGG | -0.0784 |
| AGGGTCCA | -0.398 |

| Sequence | PBM E-score |
| --- | --- |
| AGTCAAAT | 0.0323 |
| ATGATAGG | -0.0571 |
| GCATACGC | 0.218 |
| AGCAGTAA | 0.0447 |
| GTGGTTTA | -0.0512 |
| CAGAGCGA | -0.0716 |
| AGGGGCGA | -0.388 |
| TTATTCAA | 0.27 |
| AACCCTCG | 0.0753 |
| CCTCGCAA | -0.116 |
| ACATCTAA | 0.161 |
| GCGCGCCA | 0.00109 |
| CTCCGGAG | -0.142 |
| GACTTAGA | 0.0692 |
| ACATTGAG | -0.178 |
| CACCCTTC | -0.181 |
| TTACATAA | 0.407 |
| TCCGCGGA | -0.0473 |
| CAACAAAA | 0.159 |
| AGGAAACG | 0.0727 |
| TGAGGCAA | 0.0977 |
| CCCGTAAC | -0.105 |
| ACTCTATG | -0.00308 |
| ACGGTCAG | -0.188 |
| ACTGTGAA | 0.0217 |

| Sequence | PBM E-score |
| --- | --- |
| CAAGGCGA | -0.287 |
| CACTTGCA | -0.135 |
| GGTGAGAA | -0.0318 |
| ACTCGATC | -0.0287 |
| CAGTTACG | 0.328 |
| TCCAGAAA | 0.179 |
| ATGCTATC | 0.0728 |
| CTAAGTGA | 0.132 |
| ACTGTATA | 0.142 |
| CTAGCGTC | -0.0882 |
| ATGAACGG | -0.0873 |
| AGTGATCG | -0.136 |
| GTATAGAA | -0.026 |
| CAAAGAAC | 0.0181 |
| ACCTCAAC | 0.00255 |
| CCATCAGA | -0.0968 |
| CCCTCAAG | -0.204 |
| AGGATCAC | 0.0953 |
| CTGACGTA | 0.489 |
| CTCGGTGA | -0.0619 |
| CCCTGACC | -0.134 |
| CACCACAG | -0.129 |
| ACCAAACA | 0.206 |
| ATGATAGA | 0.0154 |
| GAGAGATA | 0.017 |

| Sequence | PBM E-score |
| --- | --- |
| CCTACAAG | -0.0714 |
| CGACTCTA | -0.139 |
| ACAGCCCC | -0.291 |
| GCGCAGAC | -0.118 |
| AAGGCTTC | -0.162 |
| CTCCCGAC | -0.172 |
| ACGCGATG | 0.21 |
| CCAGAAGA | -0.0677 |
| CCTTTCAA | 0.0056 |
| CGGTTCAG | -0.142 |
| CAGAAATG | -0.0878 |
| GGGTGAGA | -0.284 |
| AAGTCGCG | 0.00322 |
| AACGAGCG | 0.0965 |
| AATCTGGC | -0.0914 |
| GATGCTCA | -0.217 |
| ATTCTGCG | -0.0414 |
| CACCTGAA | 0.0843 |
| CTGCTTTA | 0.073 |
| GGACAGTA | 0.13 |
| CTACCGGA | -0.15 |
| TCGGTTCA | -0.116 |
| CACCTATC | -0.038 |
| GCTCGACC | -0.232 |
| TAAAATAA | 0.213 |

| Sequence | PBM E-score |
| --- | --- |
| CGGACTTC | -0.314 |
| ACAGTAAT | 0.175 |
| CTGGTGCC | -0.178 |
| CGTTGAGC | -0.0646 |
| ACGCCCGT | -0.0997 |
| TGGACGAA | 0.0632 |
| ATACCATA | 0.163 |
| AAATAACT | 0.151 |
| CATTAAGG | 0.0855 |
| AGCTATGG | -0.0147 |
| CGACACCG | -0.159 |
| TACGTCCA | 0.404 |
| ACGGCGAA | -0.0731 |
| ATCTGTAC | 0.199 |
| CATGAAAC | 0.0288 |
| CCCTGGTA | -0.171 |
| GTCGACGA | 0.102 |
| GAAAGGCA | -0.0765 |
| CAACCTAA | 0.0822 |
| GGAGTGGA | -0.0495 |
| TAGGGCAA | -0.127 |
| CAGTCATA | 0.0103 |
| GATCGACC | -0.222 |
| ACCCGACC | -0.128 |
| CCGCTTGA | -0.114 |

| Sequence | PBM E-score |
| --- | --- |
| GCGTGGCA | 0.0628 |
| AACAGGCG | -0.211 |
| ATAATGTA | 0.158 |
| CAGTGTTA | 0.125 |
| CAGCTATG | 0.0563 |
| CATGGACA | -0.135 |
| GTCGCGCA | 0.00385 |
| CTACCCAA | 0.00502 |
| CATGTCCA | -0.116 |
| CTACAAAG | 0.0381 |
| GATCAGAA | -0.185 |
| AGTGACAG | -0.0198 |
| CATTCAGC | -0.0386 |
| AAGGGCAA | -0.266 |
| ATACCCCG | -0.31 |
| ACTCTACG | 0.133 |
| ACAGCGTA | 0.171 |
| GAAGGACA | -0.0317 |
| GGAAACCA | -0.237 |
| ACTTGTCG | -0.106 |
| CAATCAAC | 0.137 |
| GGCCTGAA | -0.323 |
